# Laboratory results published in patent US20080044844A1 (priority 2004, published 2008).
# Conditions: LD50(mg/kg)×70 kg/2 L, LD50 oral in rats
row,Structure (SMILES),TDC (Target Detection Concentration)
1,"Oc1cc(Cl)c(Cl)cc1Cl [2,4,5-Trichlorophenol]","2,960 mg/l"
2,C[n+]1ccc(-c2cc[n+](C)cc2)cc1 [Paraquat],"5,250 mg/l"
3,CNC(=S)[S-].[Na+] [Metham Sodium],"28,700 mg/l"
4,"Oc1c(Cl)cccc1Cl [2,6-Dichlorophenol]","6,550 mg/l"
